# Paper PMC12820563
# This is one part of the list. The list includes weakly bound sequences.
# Target: T1, MBP-FoxP3dN (UniProt Q99JB6)
# T1 sequence: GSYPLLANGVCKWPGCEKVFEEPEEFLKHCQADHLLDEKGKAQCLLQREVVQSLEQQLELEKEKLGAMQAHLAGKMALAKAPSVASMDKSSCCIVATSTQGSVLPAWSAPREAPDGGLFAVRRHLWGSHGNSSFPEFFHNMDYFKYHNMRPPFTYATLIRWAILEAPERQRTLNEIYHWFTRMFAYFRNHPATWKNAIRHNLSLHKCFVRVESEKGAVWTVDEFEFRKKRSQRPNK
# Assay: PD-seq (MBP pull-down with sequencing)
# Settings: 20 mM Tris-HCl pH 7.5, 100 mM NaCl, 1.5 mM MgCl2, 0.4 uM protein, 0.1 uM dsDNA library, 30 min, room temperature, amylose pull-down; high values mean tight binding; double strand, one strand shown
row,Sequence,binding signal (RPM ratio (pull-down/input))
1,GATGATTGTTCTCCCAGCTGATGAATTGCGCTACTCGAGTAAACAAATTTTCCTAATCTTTCTGTTCAAGCGCCATCTAC,2.63
2,GATGATTGTTCTCCCAGCTGATGAATTAACGACGTCGAGTAAACAAATTTTCCTAATCTTTCTGTTCAAGCGCCATCTAC,0.29
3,GATGATTGTTCTCCCAGCTGATGAATTTATCACTTCGAGTAAACAAATTTTCCTAATCTTTCTGTTCAAGCGCCATCTAC,2.16
4,GATGATTGTTCTCCCAGCTGATGAATTTGTGTAATCGAGTAAACAAATTTTCCTAATCTTTCTGTTCAAGCGCCATCTAC,4.48
5,GATGATTGTTCTCCCAGCTGATGAATTCTTGAGATCGAGTAAACAAATTTTCCTAATCTTTCTGTTCAAGCGCCATCTAC,0.218
6,GATGATTGTTCTCCCAGCTGATGAATTCCTCTCCTCGAGTAAACAAATTTTCCTAATCTTTCTGTTCAAGCGCCATCTAC,0.223
7,GATGATTGTTCTCCCAGCTGATGAATTATAACTATCGAGTAAACAAATTTTCCTAATCTTTCTGTTCAAGCGCCATCTAC,0.64
8,GATGATTGTTCTCCCAGCTGATGAATTTCAATGATCGAGTAAACAAATTTTCCTAATCTTTCTGTTCAAGCGCCATCTAC,0.513
9,GATGATTGTTCTCCCAGCTGATGAATTAGATTTATCGAGTAAACAAATTTTCCTAATCTTTCTGTTCAAGCGCCATCTAC,1.61
10,GATGATTGTTCTCCCAGCTGATGAATTGTCGATCTCGAGTAAACAAATTTTCCTAATCTTTCTGTTCAAGCGCCATCTAC,0.472
11,GATGATTGTTCTCCCAGCTGATGAATTCCGGACCTCGAGTAAACAAATTTTCCTAATCTTTCTGTTCAAGCGCCATCTAC,0.208
12,GATGATTGTTCTCCCAGCTGATGAATTGCCCCGTTCGAGTAAACAAATTTTCCTAATCTTTCTGTTCAAGCGCCATCTAC,0.422
13,GATGATTGTTCTCCCAGCTGATGAATTTGTAATATCGAGTAAACAAATTTTCCTAATCTTTCTGTTCAAGCGCCATCTAC,1.95
14,GATGATTGTTCTCCCAGCTGATGAATTCTTTTCCTCGAGTAAACAAATTTTCCTAATCTTTCTGTTCAAGCGCCATCTAC,0.31
15,GATGATTGTTCTCCCAGCTGATGAATTCCCGGTATCGAGTAAACAAATTTTCCTAATCTTTCTGTTCAAGCGCCATCTAC,0.38
16,GATGATTGTTCTCCCAGCTGATGAATTGCACTAGTCGAGTAAACAAATTTTCCTAATCTTTCTGTTCAAGCGCCATCTAC,0.656
17,GATGATTGTTCTCCCAGCTGATGAATTTTGAATGTCGAGTAAACAAATTTTCCTAATCTTTCTGTTCAAGCGCCATCTAC,1.23
18,GATGATTGTTCTCCCAGCTGATGAATTGGTGGGGTCGAGTAAACAAATTTTCCTAATCTTTCTGTTCAAGCGCCATCTAC,0.857
19,GATGATTGTTCTCCCAGCTGATGAATTGATGTCCTCGAGTAAACAAATTTTCCTAATCTTTCTGTTCAAGCGCCATCTAC,1.04
20,GATGATTGTTCTCCCAGCTGATGAATTGAATTTATCGAGTAAACAAATTTTCCTAATCTTTCTGTTCAAGCGCCATCTAC,1.43
21,GATGATTGTTCTCCCAGCTGATGAATTGATCGCTTCGAGTAAACAAATTTTCCTAATCTTTCTGTTCAAGCGCCATCTAC,0.427

row,Sequence,binding signal (RPM ratio (pull-down/input))
1,GATGATTGTTCTCCCAGCTGATGAATTTCCATAGTCGAGTAAACAAATTTTCCTAATCTTTCTGTTCAAGCGCCATCTAC,0.227
2,GATGATTGTTCTCCCAGCTGATGAATTGGATATGTCGAGTAAACAAATTTTCCTAATCTTTCTGTTCAAGCGCCATCTAC,0.942
3,GATGATTGTTCTCCCAGCTGATGAATTCGAAGCTTCGAGTAAACAAATTTTCCTAATCTTTCTGTTCAAGCGCCATCTAC,0.282
4,GATGATTGTTCTCCCAGCTGATGAATTGGACCCGTCGAGTAAACAAATTTTCCTAATCTTTCTGTTCAAGCGCCATCTAC,0.245
5,GATGATTGTTCTCCCAGCTGATGAATTAGATCCTTCGAGTAAACAAATTTTCCTAATCTTTCTGTTCAAGCGCCATCTAC,0.283
6,GATGATTGTTCTCCCAGCTGATGAATTAGAGACCTCGAGTAAACAAATTTTCCTAATCTTTCTGTTCAAGCGCCATCTAC,0.273
7,GATGATTGTTCTCCCAGCTGATGAATTCCATGGCTCGAGTAAACAAATTTTCCTAATCTTTCTGTTCAAGCGCCATCTAC,0.31
8,GATGATTGTTCTCCCAGCTGATGAATTTGAATACTCGAGTAAACAAATTTTCCTAATCTTTCTGTTCAAGCGCCATCTAC,1.68
9,GATGATTGTTCTCCCAGCTGATGAATTGGGGTAATCGAGTAAACAAATTTTCCTAATCTTTCTGTTCAAGCGCCATCTAC,0.52
10,GATGATTGTTCTCCCAGCTGATGAATTAGGGCCGTCGAGTAAACAAATTTTCCTAATCTTTCTGTTCAAGCGCCATCTAC,0.359
11,GATGATTGTTCTCCCAGCTGATGAATTCCCATGCTCGAGTAAACAAATTTTCCTAATCTTTCTGTTCAAGCGCCATCTAC,0.399
12,GATGATTGTTCTCCCAGCTGATGAATTCCAGGGATCGAGTAAACAAATTTTCCTAATCTTTCTGTTCAAGCGCCATCTAC,0.248
13,GATGATTGTTCTCCCAGCTGATGAATTAGCGGACTCGAGTAAACAAATTTTCCTAATCTTTCTGTTCAAGCGCCATCTAC,0.294
14,GATGATTGTTCTCCCAGCTGATGAATTGTCAGTTTCGAGTAAACAAATTTTCCTAATCTTTCTGTTCAAGCGCCATCTAC,0.465
15,GATGATTGTTCTCCCAGCTGATGAATTCAACGCCTCGAGTAAACAAATTTTCCTAATCTTTCTGTTCAAGCGCCATCTAC,0.564
16,GATGATTGTTCTCCCAGCTGATGAATTTAGAGCTTCGAGTAAACAAATTTTCCTAATCTTTCTGTTCAAGCGCCATCTAC,0.398
17,GATGATTGTTCTCCCAGCTGATGAATTCCCCAGCTCGAGTAAACAAATTTTCCTAATCTTTCTGTTCAAGCGCCATCTAC,0.186
18,GATGATTGTTCTCCCAGCTGATGAATTGTAGTGATCGAGTAAACAAATTTTCCTAATCTTTCTGTTCAAGCGCCATCTAC,1.2
19,GATGATTGTTCTCCCAGCTGATGAATTGAAGACTTCGAGTAAACAAATTTTCCTAATCTTTCTGTTCAAGCGCCATCTAC,0.355
20,GATGATTGTTCTCCCAGCTGATGAATTTACGTGCTCGAGTAAACAAATTTTCCTAATCTTTCTGTTCAAGCGCCATCTAC,0.609
21,GATGATTGTTCTCCCAGCTGATGAATTTCTAATCTCGAGTAAACAAATTTTCCTAATCTTTCTGTTCAAGCGCCATCTAC,0.288

row,Sequence,binding signal (RPM ratio (pull-down/input))
1,GATGATTGTTCTCCCAGCTGATGAATTTAGAGAGTCGAGTAAACAAATTTTCCTAATCTTTCTGTTCAAGCGCCATCTAC,0.302
2,GATGATTGTTCTCCCAGCTGATGAATTTGCAATATCGAGTAAACAAATTTTCCTAATCTTTCTGTTCAAGCGCCATCTAC,2.6
3,GATGATTGTTCTCCCAGCTGATGAATTAGCTAACTCGAGTAAACAAATTTTCCTAATCTTTCTGTTCAAGCGCCATCTAC,0.316
4,GATGATTGTTCTCCCAGCTGATGAATTGGTGCGGTCGAGTAAACAAATTTTCCTAATCTTTCTGTTCAAGCGCCATCTAC,0.482
5,GATGATTGTTCTCCCAGCTGATGAATTGCACCGTTCGAGTAAACAAATTTTCCTAATCTTTCTGTTCAAGCGCCATCTAC,0.828
6,GATGATTGTTCTCCCAGCTGATGAATTCCCTGGTTCGAGTAAACAAATTTTCCTAATCTTTCTGTTCAAGCGCCATCTAC,0.245
7,GATGATTGTTCTCCCAGCTGATGAATTACGGCGGTCGAGTAAACAAATTTTCCTAATCTTTCTGTTCAAGCGCCATCTAC,0.329
8,GATGATTGTTCTCCCAGCTGATGAATTATAACCTTCGAGTAAACAAATTTTCCTAATCTTTCTGTTCAAGCGCCATCTAC,0.355
9,GATGATTGTTCTCCCAGCTGATGAATTCCCAACGTCGAGTAAACAAATTTTCCTAATCTTTCTGTTCAAGCGCCATCTAC,0.274
10,GATGATTGTTCTCCCAGCTGATGAATTTTGTGCGTCGAGTAAACAAATTTTCCTAATCTTTCTGTTCAAGCGCCATCTAC,1.52
11,GATGATTGTTCTCCCAGCTGATGAATTTCTCGCTTCGAGTAAACAAATTTTCCTAATCTTTCTGTTCAAGCGCCATCTAC,0.34
12,GATGATTGTTCTCCCAGCTGATGAATTGTAACCGTCGAGTAAACAAATTTTCCTAATCTTTCTGTTCAAGCGCCATCTAC,0.518
13,GATGATTGTTCTCCCAGCTGATGAATTGGACTGCTCGAGTAAACAAATTTTCCTAATCTTTCTGTTCAAGCGCCATCTAC,0.308
14,GATGATTGTTCTCCCAGCTGATGAATTATAGTGATCGAGTAAACAAATTTTCCTAATCTTTCTGTTCAAGCGCCATCTAC,0.649
15,GATGATTGTTCTCCCAGCTGATGAATTTCCTAGATCGAGTAAACAAATTTTCCTAATCTTTCTGTTCAAGCGCCATCTAC,0.159
16,GATGATTGTTCTCCCAGCTGATGAATTTTCGCCATCGAGTAAACAAATTTTCCTAATCTTTCTGTTCAAGCGCCATCTAC,2.67
17,GATGATTGTTCTCCCAGCTGATGAATTGACATAGTCGAGTAAACAAATTTTCCTAATCTTTCTGTTCAAGCGCCATCTAC,0.408
18,GATGATTGTTCTCCCAGCTGATGAATTCGTAGACTCGAGTAAACAAATTTTCCTAATCTTTCTGTTCAAGCGCCATCTAC,0.453
19,GATGATTGTTCTCCCAGCTGATGAATTACTGACGTCGAGTAAACAAATTTTCCTAATCTTTCTGTTCAAGCGCCATCTAC,0.346
20,GATGATTGTTCTCCCAGCTGATGAATTATACTATTCGAGTAAACAAATTTTCCTAATCTTTCTGTTCAAGCGCCATCTAC,0.634
21,GATGATTGTTCTCCCAGCTGATGAATTAATACTATCGAGTAAACAAATTTTCCTAATCTTTCTGTTCAAGCGCCATCTAC,0.575
